Reference: PubChem BioAssay AID1345082 (National Center for Advancing Translational Sciences (NCATS), 2018)
The whole screen tested about 94,000 compounds, of which about 4,000 (4.3%) were called active. The inconclusive results got no clear call from the source; some entries with a clear call stand among them for comparison. Calls come from the whole dose curve; as a rule, active = well fitted inhibition curve with a large enough effect; inconclusive = small, poorly fitted or top-dose-only effect; inactive = no such curve, though single readings can be large or run the other way. Where the call is inconclusive, the potency comes from a doubtful curve fit.

test: Cytotoxic Profiling in NIH 3T3 Cell Line of Diverse Libraries Using Quantitative High-Throughput Screening; conditions: NIH 3T3 viability, CellTiter-Glo ATP luminescence, 48-72 h; series mostly up to 96.7 µM; note: nearly all actives have a fitted effect of over 55% in size
Procedure, shortened: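 First NIH 3T3 cells are plated at 400 cells/well; next compound is pinned in; then plates incubate 48 or 72 hr at 37 °C; finally CellTiter-Glo is added and luminescence read after 10 min.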
Potency is the fitted concentration of half-maximal effect; tags give direction and shape of the fitted curve.

Row | SMILES | Potency
1 | CN(C)C[C@@H]1CN(Cc2ccccn2)C[C@H]1NC(=O)c1cc(F)cc(F)c1 | inactive
2 | CNC(=O)c1cc(C2CC2)nc2c1c(C1CCN(C(=O)Cc3ccc(OC)cc3)CC1)nn2C | inactive
3 | CC1=NS(=O)(=O)N(Cc2ccc(F)c(F)c2)C=C1C(=O)O | inactive
4 | Cc1cccc(C(=O)N2CCCC(c3nnnn3C)C2)c1 (stereo unspecified) | inactive
5 | CNC(=O)c1cc(C2CC2)nc2c1c(C1CCN(C(=O)Cc3cccc(Cl)c3)CC1)nn2C | inconclusive: 50.1 µM [inhibitor, partial curve, poor fit]
6 | Cc1cnc(C(=O)N2CCCC(Cc3noc(-c4ccccn4)n3)C2)cn1 (stereo unspecified) | inconclusive: 50.1 µM [inhibitor, partial curve, poor fit]
7 | CCOc1ccccc1CN1CCC([C@@H]2CNC[C@H]2CO)CC1 | inactive
8 | O=C(Cc1ccccc1)N1CCCN(c2cc(-c3ccc(Br)cc3)[nH]n2)CC1 | inconclusive: 50.1 µM [inhibitor, partial curve, poor fit]
9 | Cc1ccc(-c2ncc(C(=O)NCc3ccccc3Cl)c(-c3ccncc3)n2)cc1 | inconclusive: 50.1 µM [inhibitor, partial curve, poor fit]
10 | O=C(NCCc1ccccc1F)c1ccc2nnc(-c3ccc(OC(F)(F)F)cc3)n2c1 | inconclusive: 79.4 µM [inhibitor, single point]
11 | CC12CCC(=O)C=C1CCN(c1ccccc1)C2 (stereo unspecified) | inconclusive: 50.1 µM [inhibitor, partial curve, poor fit]
12 | O=C1[C@@H]2C[C@@H](CN2C(=O)c2ccno2)Oc2ccccc2N1Cc1ccc(OC(F)(F)F)cc1 | inconclusive: 44.7 µM [inhibitor, partial curve, poor fit]
13 | O=C1Cc2c(-c3ccc(CO)cc3)n[nH]c2CN1CC1CCOCC1 | active: 79.4 µM
14 | CCNC(=O)CCc1c(C)nn(-c2ccc(F)cc2)c1Oc1ccccc1 | inconclusive: 44.7 µM [inhibitor, partial curve, poor fit]
15 | Cc1ccc(S(=O)(=O)N2CC[C@H](c3nc4ccccc4[nH]3)C2)cc1 | active: 89.1 µM
16 | Cc1ccc(C(=O)N2CCC(C(=O)N3CCC(c4ccccc4)CC3)CC2)cc1 | inconclusive: 44.7 µM [inhibitor, partial curve, poor fit]
17 | COCCN1C(=O)c2cccn2CC1CNC(=O)CCc1ccccc1 (stereo unspecified) | inactive
18 | O=C([C@@H]1C[C@H](F)CN1S(=O)(=O)c1cc(F)ccc1F)N1CCc2ccccc2C1 | inconclusive: 50.1 µM [inhibitor, partial curve, poor fit]
19 | CC1(CCCCc2ccccc2)COc2ccc(C(=O)NC3CCC(O)CC3)cc2N1 (stereo unspecified) | active: 79.4 µM
20 | CC(CCNC(=O)c1cc(S(N)(=O)=O)ccc1F)N1CCN(C)CC1 (stereo unspecified) | inactive
21 | O=C(Cc1cccc(F)c1)N1CCC(n2cc(-c3nc(-c4ccccc4)no3)nn2)C1 (stereo unspecified) | inconclusive: 6.31 µM [inhibitor, full curve, poor fit]

Row | SMILES | Potency
22 | CC(C)C[C@H]1NC(=O)[C@@H]2C[C@@H](NC(=O)CS(=O)(=O)c3ccccc3)CCN2C1=O | inactive
23 | COc1ccccc1-c1ccc(C(=O)N2CCC(C(=O)NCc3ccc(C(F)(F)F)cc3)CC2)cc1 | inconclusive: 20 µM [inhibitor, full curve]
24 | CC(NC(=O)c1ccc2c(c1)CC(=O)N2Cc1ccccc1)c1ccc(F)cc1 (stereo unspecified) | inconclusive: 50.1 µM [inhibitor, partial curve, poor fit]
25 | O=C(c1ccc2ccccc2c1)N1C[C@@H]2C[C@H](C1)c1ccc(NS(=O)(=O)c3cccc(F)c3)c(=O)n1C2 | inconclusive: 56.2 µM [inhibitor, partial curve, poor fit]
26 | O=C1CCN(CC(O)Cc2ccccc2)c2ccccc2CN1CC1CC1 (stereo unspecified) | inconclusive: 70.8 µM [inhibitor, single point]
27 | COc1ccc(CN2CCN3C(=O)N(Cc4ccc(C)cc4)C[C@H]3C2)cc1 | inconclusive: 63.1 µM [inhibitor, partial curve, poor fit]
28 | C[S+](=O)([O-])c1ccc(-c2cc(C(=O)NC3CC3)nn3cccc23)cc1 | inconclusive: 50.1 µM [inhibitor, partial curve, poor fit]
29 | O=C(NCC1CC1)c1nc2sccn2c1-c1ccccc1 | inactive
30 | Cc1cc(C)cc(NC(=S)N[C@H]2CO[C@H]3[C@@H]2OC[C@H]3O)c1 | inactive
31 | CCOC(=O)C1CCCN(C(=O)c2nc3sccn3c2-c2ccc(F)cc2)C1 (stereo unspecified) | inactive
32 | OC(c1cccc(C(F)(F)F)c1)c1nc(Nc2ccc3c(c2)OCO3)n[nH]1 (stereo unspecified) | inconclusive: 100 µM [inhibitor, partial curve, poor fit]
33 | COCC(=O)N[C@@H]1CN(C(=O)C2CC2)CC[C@@H]1c1nc(C)no1 | inconclusive: 70.8 µM [inhibitor, single point]
34 | COc1ccc(C(=O)N2CCC(C(=O)N3CCCCCCNC(=O)CC3)CC2)cn1 | inactive
35 | C=CCNC(=O)N[C@H]1CCN2C(=O)c3cc(-c4cc(Cl)ccc4OC)ccc3NC(=O)[C@@H]2C1 | inconclusive: 89.1 µM [inhibitor, single point]
36 | COc1ccc(S(=O)(=O)N2CCC(OCCOc3ccccc3)CC2)cc1 | inconclusive: 50.1 µM [inhibitor, partial curve, poor fit]
37 | O=C1[C@@H]2C[C@@H](CN2C(=O)C2CC2)Oc2ccccc2N1Cc1ccc(OC(F)(F)F)cc1 | inconclusive: 70.8 µM [inhibitor, partial curve, poor fit]
38 | CN(C)C(=O)NC[C@@H]1CC[C@H]2C[C@@H]1C2(C)C | inactive
39 | Cn1nc(C2CCN(C(=O)c3ccc(F)cc3)CC2)c2c1CCOC2 | inactive
40 | COc1ccc(-c2nc(CC3CCN(C(=O)c4ccnn4C)C3)no2)cc1 (stereo unspecified) | inconclusive: 56.2 µM [inhibitor, partial curve, poor fit]
41 | COC(=O)[C@@H]1Cc2ncn(Cc3ccc(Cl)cc3)c2CN1C(=O)COc1ccccc1 | inconclusive: 89.1 µM [inhibitor, single point]
